Hit rate of the full screen: of about 310,000 compounds, about 14,000 (4.5%) showed an effect of 50% or more. The effect is printed as a negative number. This is one part of the list.
These compounds were tested against human ether-à-go-go-related gene (hERG) potassium channel (human, UniProt Q12809) (assay: primary screen, population patch clamp on CHO cells stably expressing hERG).
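Also: peak tail current of the secondary pulse compared with the same well before compound.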

Chain of human ether-à-go-go-related gene (hERG) potassium channel (Q12809 whole entry, looked up): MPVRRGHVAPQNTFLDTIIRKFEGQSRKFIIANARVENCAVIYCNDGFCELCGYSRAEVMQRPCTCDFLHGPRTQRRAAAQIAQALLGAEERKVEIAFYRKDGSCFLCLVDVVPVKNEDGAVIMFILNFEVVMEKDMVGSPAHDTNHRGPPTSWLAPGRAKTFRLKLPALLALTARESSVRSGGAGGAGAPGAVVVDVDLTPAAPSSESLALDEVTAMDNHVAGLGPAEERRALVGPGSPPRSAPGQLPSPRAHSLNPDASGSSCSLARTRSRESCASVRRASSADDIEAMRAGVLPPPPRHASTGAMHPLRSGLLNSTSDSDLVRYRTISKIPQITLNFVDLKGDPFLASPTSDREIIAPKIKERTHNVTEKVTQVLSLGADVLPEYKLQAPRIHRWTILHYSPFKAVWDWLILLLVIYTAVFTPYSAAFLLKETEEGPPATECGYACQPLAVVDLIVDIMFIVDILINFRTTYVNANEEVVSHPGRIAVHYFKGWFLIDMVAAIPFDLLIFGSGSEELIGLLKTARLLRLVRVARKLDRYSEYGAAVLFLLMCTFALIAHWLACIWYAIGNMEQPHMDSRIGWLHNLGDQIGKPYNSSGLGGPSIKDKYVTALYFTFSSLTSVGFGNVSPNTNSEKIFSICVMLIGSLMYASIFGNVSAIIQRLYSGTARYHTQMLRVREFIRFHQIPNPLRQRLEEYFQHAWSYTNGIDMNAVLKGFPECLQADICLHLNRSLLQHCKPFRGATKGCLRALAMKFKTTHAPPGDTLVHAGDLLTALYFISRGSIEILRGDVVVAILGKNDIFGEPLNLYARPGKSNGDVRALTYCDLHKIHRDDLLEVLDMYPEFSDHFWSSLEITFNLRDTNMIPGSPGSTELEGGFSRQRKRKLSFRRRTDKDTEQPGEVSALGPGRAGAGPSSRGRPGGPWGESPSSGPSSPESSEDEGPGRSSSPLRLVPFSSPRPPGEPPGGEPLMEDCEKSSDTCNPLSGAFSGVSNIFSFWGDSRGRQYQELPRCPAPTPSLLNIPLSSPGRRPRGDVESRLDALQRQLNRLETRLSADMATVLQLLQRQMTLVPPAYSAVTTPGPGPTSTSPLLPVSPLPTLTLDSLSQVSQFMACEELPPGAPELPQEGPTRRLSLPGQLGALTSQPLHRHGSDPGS

Row | SMILES | hERG current change (%, negative = inhibition) at 10uM [%]
1 | COc1cccc2cc(C(=O)Nc3ccc(S(=O)(=O)NCC4CCCO4)cc3)c(=O)oc12 (stereo not drawn) | -22.2
2 | N#Cc1ccccc1S(=O)(=O)N1CCN(CC(O)CN2CCOCC2)CC1.O=C(O)C(=O)O (stereo not drawn) | -14.5
3 | Cc1ccccc1-n1c(N)cc(=O)[nH]c1=S | 13.2
4 | CCCN1C(=S)c2ccccc2C1c1ccccc1 (stereo not drawn) | 6.96
5 | O=C(CC12CC3CC(CC(C3)C1)C2)N1CCCC1 | 10.4
6 | CC(Sc1nnc(Nc2ccccc2)s1)C(=O)NC1CCCc2ccccc21 (stereo not drawn) | 6.98
7 | CNC(=O)c1c(Cl)cnn1-c1ccccc1 | 12.2
8 | O=c1[nH]c2ccccc2c(=O)n1-c1ccc(Cl)cc1Cl | 8.11
9 | Cc1ccc(CCN2CC(C(=O)N3CCC4(CC3)OCCO4)CC2=O)cc1 (stereo not drawn) | 9.41
10 | Cc1ccc(S(=O)(=O)N2CCN(Cc3nnc(-c4c(-c5ccccc5)noc4C)o3)CC2)cc1 | -30.7
11 | O=C(CN1c2ccccc2Sc2ccccc21)NNC(=S)Nc1ccc(Cl)cc1Cl | -2.84
12 | C/C(=N\N=C(c1ccccc1)c1ccccc1)c1ccco1 | 25.8
13 | CC1(C)Cc2c(cnn2-c2ccc(F)cc2)C(NC(=O)CN2CCCC2=O)C1 (stereo not drawn) | 5.98
14 | CN1CCN(C(=S)Nc2ccccc2Cl)CC1 | 14.2
15 | CCOc1cc(C(=O)N2CCC3(CC2)NCCc2[nH]cnc23)cc(OCC)c1OCC | 21.3
16 | Br.COc1ccc(-c2cn3ccccc3n2)cc1OC | -0.714
17 | CCOc1ccc(S(=O)(=O)NC2=NCCCCC2)cc1 | 3.57
18 | COc1ccc(/C=C/c2nc(-c3ccccc3O)n[nH]2)cc1 | 25.1
19 | CCOC(=O)c1sc(-c2ccc(Cl)cc2)nc1O | -1.36
20 | O=S(=O)(NCc1ccc2c(c1)OCO2)c1ccc(F)cc1 | -3.91
21 | O=C(Cn1nc2n(c1=O)-c1ccccc1SC2)N/N=C/c1cccs1 | 6.45
22 | COC(=O)c1ccc(NC(=O)c2ccccc2NS(=O)(=O)c2ccccc2)cc1 | 6.09

Row | SMILES | hERG current change (%, negative = inhibition) at 10uM [%]
23 | O=[N+]([O-])c1ccc(Sc2n[nH]c(-c3ccc(Cl)cc3Cl)n2)nc1 | -10.3
24 | Fc1cccc(NC(=S)N2CCc3ccccc32)c1 | 8.54
25 | CC1CCN(c2ncccc2C(=O)O)CC1 | -16.2
26 | Cc1ccc(S(=O)(=O)N2[C@@H](c3cccc(Cl)c3)C(C(=O)O)=CC[C@H]2c2cccs2)cc1 | 13.7
27 | Br.CCn1c(=N)n(CC(=O)c2ccc(OC)c(OC)c2)c2ccccc21 | -13.7
28 | CCN(CC(=O)Nc1ccc(NC(C)=O)cc1)C(=O)C1COc2ccccc2O1 (stereo not drawn) | 13.3
29 | O=C(COc1ccc2c(-c3ccccc3)cc(=O)oc2c1)NCCCn1ccnc1 | -48.7
30 | O=C(CSc1ccccc1)NCc1ccccc1 | 12
31 | O=C(NCC(=O)N(c1cccnc1)C(C(=O)NC1CCCC1)c1ccc(F)cc1)c1ccco1 (stereo not drawn) | 17.4
32 | COC(=O)CSc1nnc(-c2ccccc2OC)n1-c1ccc(C)cc1 | -10.5
33 | CCNC(=O)COC(=O)c1[nH]c(C)c(C(=O)OC)c1C | 8.24
34 | CC(=O)Nc1ccc(S(=O)(=O)Nc2ccc(-n3cnnn3)cc2)cc1 | 11.5
35 | Cc1cc(C(C)(C)C)oc1C(=O)OCC(=O)NC1CCCCC1 | 0.649
36 | CCCCOC(=O)c1ccc(NC(=O)COC(=O)CN2C(=O)NC3(CCCC3)C2=O)cc1 | 3.35
37 | O=C(COc1ccccc1)N1CCN(C(=O)c2cccc(F)c2)CC1 | -7.92
38 | O=C(CN1C(=O)c2cccc3cccc1c23)NCc1ccncc1 | -4.02
39 | CC(C)C(C(=O)NCC1CCCO1)N(Cc1cccs1)C(=O)CNS(=O)(=O)c1ccccc1 (stereo not drawn) | -28.7
40 | COc1ccccc1OCc1ccc(C(=O)Nc2ccncc2)o1 | -38
41 | CC(C)n1cnnc1SCC(=O)NNC(=O)COc1ccc(Cl)cc1 | 19.2
42 | COc1ccccc1NC1CCCCC1NS(=O)(=O)c1ccccc1 (stereo not drawn) | 15.2
43 | CCC(c1nnnn1C(C)(C)CC)N(CCCO)Cc1cc2cccc(C)c2[nH]c1=O (stereo not drawn) | -18.7
44 | O=[N+]([O-])c1ccc(N2CCNCC2)cc1NC1CC1 | -13.6

Row | SMILES | hERG current change (%, negative = inhibition) at 10uM [%]
45 | Cc1c(C#N)c(N)nc2c3c(sc12)NC(=O)CC3c1ccccc1 (stereo not drawn) | 12.6
46 | Cc1ccccc1Cn1c(O)c(N=NC(=S)Nc2ccccc2F)c2ccccc21 | 19.6
47 | CCN=c1scc(-c2ccco2)n1/N=C/c1ccc(O)cc1 | 2.74
48 | COc1ccc(Nc2nc3ccccc3c(=O)s2)c(OC)c1 | 17.3
49 | C=CCn1c(SCc2c(C)noc2C)nc2sc3c(c2c1=O)CCCCC3 | 0.151
50 | Cc1ccc(N2C(=O)NC(=O)C(CCc3ccncc3)(Cc3cccc(Cl)c3Cl)C2=O)cc1 (stereo not drawn) | 6.14
51 | CCOC(=O)c1[nH]c(C)c(CN(C(C)=O)c2ccc(OCC)cc2)c1C | -4.86
52 | Cc1ccc2c(c1)cc(CN(CCc1ccccc1)C(=O)N1CCOCC1)c1nnnn12 | -61.3
53 | Cl.NC(N)=NC(=O)Cc1c(Cl)cccc1Cl | 13.9
54 | CCn1c2ccccc2c2cc(NC(=O)COc3ccc(OC)cc3)ccc21 | 4.94
55 | O=[N+]([O-])c1ccc(COc2ccccc2/C=N/O)cc1 | -4.22
56 | COc1ccc(NC(=O)Cn2ncc(Cl)c(Cl)c2=O)cc1S(=O)(=O)N1CCOCC1 | 0.26
57 | CN(C)CCN=Cc1c(O)n(Cc2ccco2)c(=O)[nH]c1=O | 11.2
58 | COc1ccc(OC)c(C2=Nn3c(nnc3-c3ccncc3)SC2)c1 | -24.3
59 | NS(=O)(=O)c1cc(C(=O)NC2CCSc3ccccc32)ccc1Cl (stereo not drawn) | 7.27
60 | CCOc1ccccc1N/C=C/C(=O)C(C)(C)C | -7.16
61 | Cc1ccccc1OCCNC(=O)/C=C/c1ccc([N+](=O)[O-])cc1 | -32.3
62 | O=c1cc(CO)oc(C(Nc2ccccn2)c2ccc(F)cc2)c1O (stereo not drawn) | 9.87
63 | CCS(=O)(=O)Nc1cccc(C2=NN(S(=O)(=O)c3ccccc3)C(c3ccco3)C2)c1 (stereo not drawn) | -3.79
64 | COc1cccc(-c2cc(C(F)(F)F)nc(N3CCC(C)CC3)n2)c1 | 6.69
65 | CC(C)CCC[C@@H](C)[C@H]1CC[C@H]2[C@@H]3C(=O)C=C4C[C@@H](O)CC[C@]4(C)[C@H]3CC[C@]12C | 12.5
66 | COc1ccc(N2C(=O)CCC(C(=O)O)C2c2ccc(OC)c(OC)c2)cc1 (stereo not drawn) | 2.55

Row | SMILES | hERG current change (%, negative = inhibition) at 10uM [%]
67 | COc1cccc(OCC(O)CN2CCN(c3ccc(Cl)cc3)CC2)c1 (stereo not drawn) | -71.9
68 | CC(=O)c1cc(CN2CCN(CCc3ccccc3)C(CCO)C2)cs1 (stereo not drawn) | -54.4
69 | O=C(O)c1ccccc1NSc1ccccc1[N+](=O)[O-] | 7.35
70 | COc1ccc(/C=N/Nc2nonc2N)cc1 | -12.3
71 | Cc1ccc(/C=C2/NC(=O)N(Cc3ccccc3)C2=O)o1 | -3.16
72 | COc1ccc(CCNC(=O)CSc2nc(=O)n3cccc(C)c3n2)cc1OC | 15.8
73 | COc1ccc2[nH]c(C(=O)N3CCC(CO)(Cc4cccc(C(F)(F)F)c4)CC3)c(C)c2c1 | 7.98
74 | O=C(O)C12C[C@H]3C[C@@H](C1)CC(n1ncc(N4CCN(c5ccccc5)CC4)c(Cl)c1=O)(C3)C2 | 9.94
75 | Cc1ccc(C(=O)N2CC(=O)Nc3ccccc32)o1 | 6.06
76 | CCOC(=O)c1ccc(NC(=O)COC(=O)c2cccc(Oc3ccccc3)c2)cc1 | 4.33
77 | CCC(C)Sc1cccc(-c2nc3ccc(C)cn3c2NCc2ccccc2)c1.O=C(O)C(F)(F)F (stereo not drawn) | 7.31
78 | C=CCn1c(SCC(=O)NC2CCS(=O)(=O)C2)nc2scc(C3CC3)c2c1=O (stereo not drawn) | -33.6
79 | Cc1ccc(CNC(=O)CCC(=O)N2CC(C)Sc3ccccc32)cc1 (stereo not drawn) | -20.6
80 | CCOc1ccccc1Cn1c(=O)oc2ccc(C)cc21 | 11.1
81 | CC1CCCC(NC(=O)CCS(=O)(=O)c2ccc3c(c2)NC(=O)CS3)C1C (stereo not drawn) | -31.5
82 | Cc1nc(N[C@@H](Cc2c[nH]c3ccccc23)C(=O)O)c2oc3ccccc3c2n1 | 5.9
83 | O=C(NCCOc1ccccc1F)C1CC(=O)N(c2ccc3c(c2)OCCO3)C1 (stereo not drawn) | -0.91
84 | Cc1ccc(Cl)cc1NC(=O)Cn1cc(C(F)(F)F)cc(Cl)c1=O | -2.05
85 | O=C(NC(Cc1c[nH]c2ccccc12)C(=O)O)c1ccc(F)cc1 (stereo not drawn) | 17.7
86 | Cc1cc(NC(=O)c2ccc(C)s2)n(-c2ccccc2)n1 | 6.92
87 | COC(=O)[C@@H]1CCCN1Cc1nc(Cc2ccccc2F)no1 | 2.65
